Variants at the floor of the assay are shown more often than the library holds them.
B1: TPR 5TU (parent)
chain: GGAUCUUCUCGAUCUAACAAAAAAGACAAAUCUGCCACAAAGCUUGAGAGCAUCUUCGGAUGCAGAGGCGGCAGCCUUCGGUGGCGCGAUAGCGCCAACGUUCUCAACUAUGACACGCAAAACGCGUGCUCCGUUGAAUGGAGUUUAUCAUG

Variants of: B1
Test: polymerase ribozyme fitness, log enrichment relative to wild type (log ratio); higher = more active; in vitro selection for triplet polymerase activity
In short: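 Both subunits of a heterodimeric triplet polymerase ribozyme were given their own mutant library, built by PCR and transcribed. Each library was annealed with a biotinylated primer, the partner subunit and triplets, incubated frozen at −7 °C, and its extended constructs gel-excised, captured on streptavidin beads and amplified by RT-PCR, all in one round done in triplicate. Fitness is the logarithm of genotype enrichment relative to wild-type enrichment, with replicates averaged by inverse-variance weighting. That logarithm is base 2, and Illumina-sequenced genotypes needed ≥10 input reads and ≥1 read per output.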

Variant	polymerase ribozyme fitness (log ratio)
GGAUCUUCUCGAUCUAACAAAAAAGACAAAUCUGCCACAAAGCUUGAGAGCAUCUGCGGAUGCAGAGGCGGCAGCCUUAGGUGGCGUGAUAGAGCCAACGUUCUCAACUAUGACACGCAAAACGCGUGCUCCGUAGAAUGGAGUUUAUCAUG [U56G C79A C87U C93A U135A]	≤ -4.2
GGAUCUUCUCGAUCUAACAAAAAAGACAAAUCUGCCACAAAGCUUGAGAGCAUCUGCGGAUGCAGAGGCGGCAGCCUUACGUGGCGCGAUAGCGCCAACGUUCUCAACUAUGACACGUAAAACGCGUGCUCCGUUGAAUGGAGUUUAUCAUG [U56G C79A G80C C118U]	≤ -4.2
GGAUCUUCUCGAUCUAACAAAAAAGACAAAUCUGCCACAAAGCUUGAGAGCAUCUGCGGAUGCAGAGGCGGCAGCCUUAGGUCGCGCGAUAGCGCCAACGUUCUCAACUAUGACACGCAAAACGCGCGCUCCCUUGAAUGGAGUUUAUCAUG [U56G C79A G83C U127C G133C]	≤ -4.2
GGAUCUUCUCGAUCUAACAAAAAAGACAAAUCUGCCACAAAGCUUGAGAGCAUCUGCGGAUGCAGAGGCGGCAGCCUUCGGUGGAGCGAUAGCGCCAACGUUCUCAACUAUGACACGCAAAACGCGUGCUCCGUUGAAUGGAGUUUAUCAUG [U56G C85A]	-2.05
GGAUCUUCUCGAUCUAACAAAAAAGACAAAUCUGCCACAAAGCUUGAGAGCAUCUGCGGAUGCAGAGGCGGCAGCCUUCGGUGGUGCGAUAGCGCCAACGUUCUCGACCAUGACACGCAAAACGCGUGCUCCGUUGAAUGGAAUUUAUCAUG [U56G C85U A106G U109C G143A]	≤ -4.2
GGAUCUUCUCGAUCUAACAAAAAAGACAAAUCUGCCACAAAGCUUGAGAGCAUCUGCGGAUGCAGAGGCGGCAGCCUUCGGUGGCGCGAUAGAGCCAACGUUCUCAACUAUGACACGCAAAACGCGAGCUCCGUUGAAUGGAGUUUAUCAGG [U56G C93A U127A U151G]	≤ -4.2
GGAUCUUCUCGAUCUAACAAAAAAGACAAAUCUGCCACAAAGCUUGAGAGCAUCUGCGGAUGCAGAGGCGGCAGCCUUCGGUGGCGCGAUAGUGCCAACGUUCUCAACUAUGACACGCAAAACGCGUGCUCCGUUGAAUGGAGUUUAUCAUG [U56G C93U]	-3.02
GGAUCUUCUCGAUCUAACAAAAAAGACAAAUCUGCCACAAAGCUUGAGAGCAUCUGCGGAUGCAGAGGCGGCAGCCUUCGGUGGCGCGAUAGUGCCAACGUUCUCAGCUAUGACACGCAUAACGCGUGCUCCGUUGAAUGGAGUUUAUCAUG [U56G C93U A107G A120U]	-4.12
GGAUCUUCUCGAUCUAACAAAAAAGACAAAUCUGCCACAAAGCUUGAGAGCAUCUGCGGAUGCAGAGGCGGCAGCCUUCGGUGGCGCGAUAGCGCCAACGUUAUCAACUAUGACACGCAAAUCGCGUGCUCCGUUGAAUGGAGUUAAUCAUG [U56G C103A A122U U146A]	-2.78
GGAUCUUCUCGAUCUAACAAAAAAGACAAAUCUGCCACAAAGCUUGAGAGCAUCUGCAGAUGCAGAGGCGGCAGCCUUCGGUCGCUCGAUAGCGCCAACGUUCUCAACUAUGACACGCAAAACGCGUGCUCCGUUGAAUGGAGUUUAUCAUG [U56G G58A G83C G86U]	≤ -4.2
GGAUCUUCUCGAUCUAACAAAAAAGACAAAUCUGCCACAAAGCUUGAGAGCAUCUGCCGAUGCAGAGACGGCAGCCUUCGGUGGCGCGAUAGCGCCAACGUUCUCAACUAUGACACGCAAAACGCGUGCUCCGUUGAAUGGAGUUUAUCAUG [U56G G58C G68A]	≤ -4.2
GGAUCUUCUCGAUCUAACAAAAAAGACAAAUCUGCCACAAAGCUUGAGAGCAUCUGCGAAUGCAGAGGCGGCAGCCUUCGGUGGCGCGAUAGCGCCAACGUUCUCAACUAUGACACGCAAAACGCGUGCUCCGUUGAAUGGAGUUUAUCAUG [U56G G59A]	-1.14
GGAUCUUCUCGAUCUAACAAAAAAGACAAAUCUGCCACAAAGCUUGAGAGCAUCUGCGUAUGCAGAGGCGGCAGCCUUCGGUGGCGAGAUAGCGCCAACGUUCUCAACUAUGACACGCAAAACGCGUGCUCCGUUGAAUGGAGUUUAUCAUG [U56G G59U C87A]	≤ -4.2
GGAUCUUCUCGAUCUAACAAAAAAGACAAAUCUGCCACAAAGCUUGAGAGCAUCUGCGUAUGCAGAGGCGGCAGCCUUCCGUGGCGCGAUAGAGCCAACGUUCUCAACUAUGACACGCAAAACGCCUGCUCCGUUGAAUGGAGUUUAUCAUG [U56G G59U G80C C93A G126C]	≤ -4.2
GGAUCUUCUCGAUCUAACAAAAAAGACAAAUCUGCCACAAAGCUUGAGAGCAUCUGCGGAUGCAGAGGCUGCAGCGUUCGGUGGUGCGAUAGUGCCAACGUUCUCAACUAUGACACGCAAAACGCUUGCACCGUUGAAUGGACUUUAUCAUG [U56G G70U C76G C85U C93U G126U U130A G143C]	≤ -4.2
GGAUCUUCUCGAUCUAACAAAAAAGACAAAUCUGCCACAAAGCUUGAGAGCAUCUGCGGAUGCAGAGGCGGCAGCCUUCCGUGGUGCGAUAGCGCGAACGUUCUCAACCAUGACACGCAAAACGCGUGCUCCGUUGAAUGGAGUUUGUCUUG [U56G G80C C85U C96G U109C A147G A150U]	≤ -4.2
GGAUCUUCUCGAUCUAACAAAAAAGACAAAUCUGCCACAAAGCUUGAGAGCAUCUGCGGAUGCAGAGGCGGCAGCCUUCGUUGGCGCGAUGGCGCCAACGUUCUCAACUAUGACACGCAAAACGCGUGCUCCGUUGAAUGGAGUUUAUCAUG [U56G G81U A91G]	-3.38
GGAUCUUCUCGAUCUAACAAAAAAGACAAAUCUGCCACAAAGCUUGAGAGCAUCUGCGGAUGCAGAGGCGGCAGCCUUCGGUAGCGCCAUAGGGCCAACGUUCUCAACUAUGACACGGAAAACGCGUGCUCCGUUGAAUGGAGUUUAUCAUG [U56G G83A G88C C93G C118G]	≤ -4.2
GGAUCUUCUCGAUCUAACAAAAAAGACAAAUCUGCCACAAAGCUUGAGAGCAUCUGCGGAUGCAGAGGCGGCAGCCUUCGGUUGCGCGAUAGCGCCAACGUUCUCAACUAUGACACGCAAAACGUGUGCUCCGUUGAAUGGAGUUUAUCAUG [U56G G83U C125U]	-1.82

— the RNAGym collection of RNA variant scans (doi:10.1073/pnas.2313332121)
